Measurements reported in the supplement of paper PMC12632987.
Over roughly 4,500 sequences, “median log2 fold change of GCK-ALFA target abundance (FLAG IP / Myc IP barcode read proportion)” has its median near 0.078; the lowest 2% begin near -0.6. This is one part of the list.

B1: GBRAP_125_3031 (protein)
chain: GAEAAAAALATIARALGFSDDDVEELVALARAHGFKGAMIALALAEGNEELADLLEKLTEEEVAAVLAELAAYLAAHPDLTPEEVLAKLLEIAKAAVAKS
B2: GBRAP_160_4247 (protein)
chain: EERIERIERDFREEAEVTLEALLELPKSQWAAIARAMAGNLVQIVIEDPNATDELEEAVDEKADELVERLLAAADASPEELRRLLEEGVEEIVETYRKLI
B3: GBRAP_74_6533 (protein)
chain: MEEIIEEINKLIESGKPEDLIKAIELALEELDKETRKEILDKIAKKVLENIDKFSAEEVEKLLDKWVEVELELEEEEWSDIQLEALAALAAKAVEYEEKE
B4: GBRAP_78_6732 (protein)
chain: ELKKLLEEALKVASEAARLAVHRVSNEVIAEIVEALSDLEEALELVEEGGDKEEIKEHLERAAEHIKKAIELLPESAEEIRKLLEEALKLVKEALKEVEK
B5: GBRAP_160_4287 (protein)
chain: SEELEKLIKEIDEIVEEALEEMEGQSREERANIVRVAGGEVVLLLSENPNVSDETEDKVDEIWDEVADRILANPDLTDEEIRALLLEAREKVKKLLKEDM
B6: GBRAP_160_4175 (protein)
chain: SEKLEEAEKKIKEIFEEAYKMMEGESAEERAAIVAVAFGEIILYLEEKGLLTDETEAKIDEIEDEAVEYILENPDLTEEELRELLEESAEKIIKALKENS
B7: GBRAP_35_5586 (protein)
chain: EDEELLLDTLEDLAEATIYAIKTEDIETVKALLETLIKYSEEAIELFKNNLEALEKLAELLEKVAKALKEYRSDNPEIQELLKKVEELLKKAKELAKKVK
B8: GBRAP_52_6070 (protein)
chain: MEKKIEELAKEITAALKAGDEEAALELLKKAIKELSKEEIKELLVKTAKLVAELDEETHERFVDVMDEVEDLLIEAGISEEEALLIVGDALAALAKAVAA

What follows are binders tested against GABARAP, O95166 (assay: median log2 fold change of GCK-ALFA target abundance (FLAG IP / Myc IP barcode read proportion) (log2 ratio); each designed protein is fused to an ALFA-tag nanobody in HEK293 cells to bring the named protein to FLAG-tagged glucokinase (GCK); Myc marks an untargeted standard; higher = target protein stabilised (more abundant)). Conditions: target protein: 3xFLAG-MCP-GCK-ALFA reporter; HEK293 landing pad (RPLP).
How it was run: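 Binders fused to an ALFA nanobody were recombined as a library into HEK293 landing-pad cells, which were induced with 2 μg mL^−1 doxycycline and then transfected to express a FLAG-tagged target and a Myc-tagged standard. After 48 h, circular RNA barcodes recovered by anti-FLAG and anti-Myc immunoprecipitation of lysates were reverse transcribed, amplified and sequenced. Each binder's target abundance is the median log2 ratio of FLAG to Myc barcode read proportions, from barcodes present at ≥10^−7 in both replicates, binders carrying ≥3 barcodes per replicate, a 10^−6 pseudocount and pooled replicates.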

Chain of GABARAP, O95166 (O95166 whole entry, the tested form may be a part): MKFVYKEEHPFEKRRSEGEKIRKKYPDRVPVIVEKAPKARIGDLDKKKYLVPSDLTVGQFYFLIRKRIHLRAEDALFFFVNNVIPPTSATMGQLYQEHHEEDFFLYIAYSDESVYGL

Binder	median log2 fold change
B1	-0.0155
B2	-0.554
B3	-0.132
B4	0.0328
B5	-0.142
B6	-0.178
B7	0.012
B8	-0.473
